Results as given in the RNAGym collection of RNA variant scans (doi:10.1073/pnas.2313332121).
Variants at the background level are over-represented here.

B1: TPR 5TU (parent)
chain: GGAUCUUCUCGAUCUAACAAAAAAGACAAAUCUGCCACAAAGCUUGAGAGCAUCUUCGGAUGCAGAGGCGGCAGCCUUCGGUGGCGCGAUAGCGCCAACGUUCUCAACUAUGACACGCAAAACGCGUGCUCCGUUGAAUGGAGUUUAUCAUG

Variants of: B1
Test: polymerase ribozyme fitness, log enrichment relative to wild type (log ratio); higher = more active; in vitro selection for triplet polymerase activity
Outline: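 Fitness is a logarithmic measure of how a genotype enriched relative to the wild type, with replicate averages weighted by inverse variance. The logarithm uses base 2, and enrichment came from Illumina sequencing of input and output libraries. Those libraries were PCR-built, transcribed mutants of each subunit of a heterodimeric triplet polymerase ribozyme, passed through one triplicate in vitro selection round that included frozen incubation at −7 °C, gel excision of extended constructs and streptavidin-bead capture. Genotypes were kept only if they had ≥10 input reads and ≥1 read per output.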

| Variant | polymerase ribozyme fitness (log ratio) |
| --- | --- |
| G50U C54G | -1.98 |
| G50U C57A C72U G84A | -0.724 |
| G50U C57U A73U G80C U109A C114U | ≤ -4.2 |
| G50U C57U C72U C95A G126U A138U U139A | ≤ -4.2 |
| G50U C57U C87U U135G | ≤ -4.2 |
| G50U C57U G74A G92C G140A | ≤ -4.2 |
| G50U C72U A97C | -0.611 |
| G50U C85A U144A U145C | -1.01 |
| G50U C87U | -1.51 |
| G50U C87U G92A | 0.244 |
| G50U C93G C108G | ≤ -4.2 |
| G50U C95A C125G | -0.894 |
| G50U C95A U102G U111A | ≤ -4.2 |
| G50U C95A U109C | ≤ -4.2 |
| G50U C95G U104A | -1.95 |
| G50U C95U C96U A115G | ≤ -4.2 |
| G50U C95U C118A G140A | ≤ -4.2 |
| G50U C96A C116G U144G | -1.25 |
| G50U C96G | -0.544 |
| G50U G58C G83U G94C U127A G128C U146C | ≤ -4.2 |
| G50U G62C C75U G86U U109A A147U | ≤ -4.2 |
| G50U G65C G83A C87U C99G C105A | ≤ -4.2 |
| G50U G67U C85G C103U G140A A147G | ≤ -4.2 |
| G50U G70A C93G C116A G140A | ≤ -4.2 |

| Variant | polymerase ribozyme fitness (log ratio) |
| --- | --- |
| G50U G70A G136U | ≤ -4.2 |
| G50U G74A C93A | ≤ -4.2 |
| G50U G74C G80A C85U U139C G141C | ≤ -4.2 |
| G50U G80A G86U C125U C132U A137G | ≤ -4.2 |
| G50U G83A A97U A98U | 0.0748 |
| G50U G83A C95G A107G | ≤ -4.2 |
| G50U G84A G92A A113U A137G U146A | ≤ -4.2 |
| G50U G84A U148G | ≤ -4.2 |
| G50U U53A A60G U61G A137C A150U | ≤ -4.2 |
| G50U U53G G81A C93U C103G G128U | ≤ -4.2 |
| G50U U55A G71U | -3.35 |
| G50U U55G C75A A97G A137U U151A | ≤ -4.2 |
| G50U U56A A107G | ≤ -4.2 |
| G50U U56G A73U C108A A122C G141C | ≤ -4.2 |
| G50U U56G G68U | ≤ -4.2 |
| G50U U61G C108U U135A | ≤ -4.2 |
| G50U U77A C87A | ≤ -4.2 |
| G50U U77C A115C C118U | ≤ -4.2 |
| G50U U78C U139G | -3.06 |
| G50U U102A A142U | -2.57 |
| G50U U144G U145A | 0.245 |
| G50U U145C | -0.536 |
| C51A A52C U146G | -2.06 |
| C51A A52G U56G C79A | ≤ -4.2 |

| Variant | polymerase ribozyme fitness (log ratio) |
| --- | --- |
| C51A A60G A89U | -1.65 |
| C51A A64C C93G G112C A147U | ≤ -4.2 |
| C51A A64U C85A G117A U151A | ≤ -4.2 |
| C51A A64U C96U C99A A107G A121U G128A | ≤ -4.2 |
| C51A A89C C93U G117U A137U A150C | ≤ -4.2 |
| C51A A91G | -3.53 |
| C51A A137C | ≤ -4.2 |
| C51A C54A | ≤ -4.2 |
| C51A C54G G83C G124C | ≤ -4.2 |
| C51A C54U A91U G100U G124A U135C | ≤ -4.2 |
| C51A C57A C87U A98G U146G | -3.12 |
| C51A C57A C95A C114G A150G | ≤ -4.2 |
| C51A C57U C75G G80U C87A A98G U104G A110U | ≤ -4.2 |
| C51A C63A G88U G126A | ≤ -4.2 |
| C51A C69A A73G C93U C99A | ≤ -4.2 |
| C51A C75U C95U A106C G128U | ≤ -4.2 |
| C51A C85A A98C A119U A120C A150G | ≤ -4.2 |
| C51A C85A G92U C95G U145A | ≤ -4.2 |
| C51A C85U | -1.01 |
| C51A C85U A89G U146A | -3.11 |
| C51A C85U C103G G124A U145G A150G | ≤ -4.2 |
| C51A C87A | ≤ -4.2 |
| C51A C87A C99G A115G G136C A147C | ≤ -4.2 |
| C51A C96U | -1.91 |

| Variant | polymerase ribozyme fitness (log ratio) |
| --- | --- |
| C51A C99G | -4.07 |
| C51A C99G G141C | ≤ -4.2 |
| C51A C118U G152A | -3.06 |
| C51A G58C U61A A73G G94C G133U | ≤ -4.2 |
| C51A G65A G94C C114U | ≤ -4.2 |
| C51A G65A G94C C114U C132U | ≤ -4.2 |
| C51A G65C C75G C93G C131U A142G | ≤ -4.2 |
| C51A G67U C96A | ≤ -4.2 |
| C51A G67U G81U G83U C95A C116A C118U U144C | ≤ -4.2 |
| C51A G70A | ≤ -4.2 |
| C51A G71U C95G C96U U102G U145C U151C | ≤ -4.2 |
| C51A G74U C85U U135A | ≤ -4.2 |
| C51A G80C C96G A106G A110U | ≤ -4.2 |
| C51A G80C G84C A107U | ≤ -4.2 |
| C51A G83U C103A | ≤ -4.2 |
| C51A G92C G100U C103U G117A C131G U146C | ≤ -4.2 |
| C51A G94C A107U | ≤ -4.2 |
| C51A G117U | -1.02 |
| C51A G136A | -0.23 |
| C51A G140C | -4.19 |
| C51A U55A A60C G74A G81A U90G C95A | ≤ -4.2 |
| C51A U55A A64G G83U G92A | ≤ -4.2 |
| C51A U55A G86U G88C A106G | ≤ -4.2 |
| C51A U55A U56G G71U A89G A122U | ≤ -4.2 |

| Variant | polymerase ribozyme fitness (log ratio) |
| --- | --- |
| C51A U56A C76A A121C | ≤ -4.2 |
| C51A U56A C95A A98U | -1.46 |
| C51A U56A G59A C69A C105G U135G A142U | ≤ -4.2 |
| C51A U56A G59A C76G G88A A91C G141U | ≤ -4.2 |
| C51A U82A A115C G117A | ≤ -4.2 |
| C51A U82G C96U G143C | ≤ -4.2 |
| C51A U127G | -4.1 |
| C51G A52G C76U U109G G143U U146G | ≤ -4.2 |
| C51G A52G U102A | -3.01 |
| C51G A52U A66U U145A | ≤ -4.2 |
| C51G A60C G65C C93U U101C | ≤ -4.2 |
| C51G A60G | -1.74 |
| C51G A73G C79G C87G G140C U144A | ≤ -4.2 |
| C51G A91G | ≤ -4.2 |
| C51G A91U | ≤ -4.2 |
| C51G A97G C118A A138G G141U | ≤ -4.2 |
| C51G A106G U144A | -3.29 |
| C51G C54G C76G C96G C99U U146C | ≤ -4.2 |
| C51G C54U A98G C132A U135G | ≤ -4.2 |
| C51G C54U C75G G94A A142U A150G | ≤ -4.2 |
| C51G C63U C116U U139C | ≤ -4.2 |
| C51G C63U G88A C96U C116A | ≤ -4.2 |
| C51G C69U C96U C99G | ≤ -4.2 |
| C51G C75U C79A G80C C87A A98U C103G U145G | ≤ -4.2 |

| Variant | polymerase ribozyme fitness (log ratio) |
| --- | --- |
| C51G C76A C87U | ≤ -4.2 |
| C51G C76A C114U G133C | ≤ -4.2 |
| C51G C85A G92U C95A | ≤ -4.2 |
| C51G C85G C125U A137C | ≤ -4.2 |
| C51G C95U | -2.73 |
| C51G C95U A106U | ≤ -4.2 |
| C51G G58A C85U U111G | ≤ -4.2 |
| C51G G58C G81A G136U | ≤ -4.2 |
| C51G G59A G133U G141A | ≤ -4.2 |
| C51G G59C C75U C85U A91U C93A G141U | ≤ -4.2 |
| C51G G65C U77G U102C A120G G136C U146G | ≤ -4.2 |
| C51G G70A C76U G83U G84A A98G U135G | ≤ -4.2 |
| C51G G70A G81A G86U G128A C129A | ≤ -4.2 |
| C51G G81C G88A | ≤ -4.2 |
| C51G G92A | ≤ -4.2 |
| C51G G92C G94U A115C U134C | ≤ -4.2 |
| C51G G94C C149U | -3.9 |
| C51G G94U | ≤ -4.2 |
| C51G U53A A60G G70U G83C A150C | ≤ -4.2 |
| C51G U53A G83C C118U G128A | ≤ -4.2 |
| C51G U53C G67C G86U U101G A138U | ≤ -4.2 |
| C51G U55A | -2.88 |
| C51G U56A G117U | -2.86 |
| C51G U61G U148C | ≤ -4.2 |

| Variant | polymerase ribozyme fitness (log ratio) |
| --- | --- |
| C51G U90G C95A A97U C99U | ≤ -4.2 |
| C51U A52C C54G U61A C75A G141C A142G | ≤ -4.2 |
| C51U A52C C96A U104G A106G G126C | ≤ -4.2 |
| C51U A52C C103A U139G | ≤ -4.2 |
| C51U A52C U55G U56C C114A | ≤ -4.2 |
| C51U A52G C57U G84C G117C A137C A150G G152U | ≤ -4.2 |
| C51U A52G G65C C85A C87U A147U | ≤ -4.2 |
| C51U A52U G80C U90A U139A | ≤ -4.2 |
| C51U A52U U53A G83A G92A U109G | ≤ -4.2 |
| C51U A64C C79A C85U A142G | ≤ -4.2 |
| C51U A64C C114G A138C | ≤ -4.2 |
| C51U A64C G71A C85A C108G | ≤ -4.2 |
| C51U A64U A66G G68A C87U C103G | ≤ -4.2 |
| C51U A64U C95U A119G G124A C149U | ≤ -4.2 |
| C51U A66G U82G G86A G94A U101G C132G | ≤ -4.2 |
| C51U A66U C87A C118G | ≤ -4.2 |
| C51U A73G G92U | -0.595 |
| C51U A89G G141U | -0.598 |
| C51U A91G G100A A110U A121U | ≤ -4.2 |
| C51U A107C | ≤ -4.2 |
| C51U C54G C85A A89C C103G C114A G133A | ≤ -4.2 |
| C51U C54G G68U U78A U82G C103A G140C | ≤ -4.2 |
| C51U C54G G74U C85G A97U | ≤ -4.2 |
